# Reference: PubChem BioAssay AID485344 (National Center for Advancing Translational Sciences (NCATS), 2010)
# Out of some 340,000 compounds screened, about 6,900 (2%) were called active. Rule as the data show it: active = inhibition above about 30%; inactive = below that, where a call was filed. This is a selection; strong and weak results do not stand in their true shares. The source gives no active or inactive call for entries shown without one.
# Target: D(2) dopamine receptor (Homo sapiens) (UniProt P14416)
# Sequence of UniProt P14416 (P14416 whole entry, looked up): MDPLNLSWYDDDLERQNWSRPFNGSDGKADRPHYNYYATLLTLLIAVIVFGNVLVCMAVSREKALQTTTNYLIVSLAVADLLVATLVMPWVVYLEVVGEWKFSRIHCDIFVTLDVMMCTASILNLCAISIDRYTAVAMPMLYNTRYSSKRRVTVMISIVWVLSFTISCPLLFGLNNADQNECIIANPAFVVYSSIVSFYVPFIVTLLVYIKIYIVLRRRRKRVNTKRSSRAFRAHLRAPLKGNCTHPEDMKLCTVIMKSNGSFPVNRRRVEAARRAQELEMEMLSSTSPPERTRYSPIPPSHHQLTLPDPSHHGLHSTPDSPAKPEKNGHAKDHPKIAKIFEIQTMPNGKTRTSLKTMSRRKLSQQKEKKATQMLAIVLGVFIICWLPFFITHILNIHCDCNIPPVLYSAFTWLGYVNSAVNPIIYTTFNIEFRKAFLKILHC
# Experiment: HTS Assay for Allosteric Antagonists of the Human D2 Dopamine Receptor: Primary Screen for Antagonists; also: 0% is about no effect
# Conditions: HEK293 TREx D2 cells, calcium flux, dopamine EC80; at 10 µM; stronger effect = higher value
# Source text: NIH Chemical Genomics Center [NCGC] NIH Molecular Libraries Probe Centers Network [MLPCN] MLPCN Grant: NS064831-01 Assay Submitter (PI): David Sibley Dopamine receptors (DARs) are involved in the etiology and/or therapy of a number of neuropsychiatric and endocrine disorders. For instance, all receptor-based antiparkinsonian drugs work via stimulating the D2 DAR subtype whereas all FDA-approved antipsychotic agents are antagonists of this receptor. […] There are three different types of allosteric modulators that we are seeking, two of which will stimulate or augment receptor signaling, allosteric agonists and potentiators, while the third, allosteric antagonists, will attenuate receptor signaling. The present primary screening assay measures compound antagonism after an EC80 addition of dopamine by tracking calcium flux in a […], inducible Hek293 Trex D2 cell line.
# Freshly passaged cells are plated in 1536 well black, clear bottom plates at a density of 4000 cells/well in 3 ul of complete media containing 1x tetracycline inducer. After an overnight incubation at 30 C in 5% CO2, cells are loaded with 2 ul of the no wash Calcium Assay Kit (ABD Bioquest) and incubated at room temperature for 30 to 90 minutes. Agonist read: A 10 cycle (1 second/cycle) baseline measurement is taken and then the FDSS online 1536 pintool delivers 23 nl of compound library (as well as dopamine controls) to the plate. The plate is measured for kinetically at 1 cycle/sec for 180 seconds. Following the 180 second read, 1 ul of an EC80 (negative modulation assay) is delivered by an onboard pipette head. Measurements are taken kinetically for an additional 180 seconds.
row,Compound,inhibition
1,CC(C)c1nn2c(=O)cc(COC(=O)c3ccco3)nc2s1,-2.1%
2,COc1ccccc1N1CCN(S(=O)(=O)c2c(C)nc3sccn3c2=O)CC1,-10%
3,Cc1ccc(S(=O)(=O)c2c(O)cc(C)c(NS(=O)(=O)c3ccc(Cl)cc3)c2C)cc1,-5.39%
4,Cc1cc(C)c2sc(N3CCN(C(=O)c4ccc(N(C)C)cc4)CC3)nc2c1,6.16%
5,CC(OC(=O)Cn1c(C(F)(F)F)nc2ccccc21)C(N)=O (configuration not stated),active: 39.9%
6,CCC(C)NS(=O)(=O)c1ccc(NC(=O)c2ccc([N+](=O)[O-])cc2Cl)cc1 (configuration not stated),active: 37.3%
7,Cc1ccc(-c2cc3nc(-c4ccccc4)cc(C(F)(F)F)n3n2)cc1,-7.45%
8,COc1cc(C2CC(=O)Oc3c2c(=O)[nH]c2ccccc32)cc(OC)c1OC (configuration not stated),-1.02%
9,Cc1ccc(NC(=O)C2CCN(S(=O)(=O)c3cccc4nonc34)CC2)cc1C,8.73%
10,CCOc1ccc(Nc2c(S(=O)(=O)c3ccccc3)cnc3ccc(F)cc23)cc1,-0.0856%
11,Cc1[nH]c2ccccc2c1C(=O)CN1CCN(C2CCCCC2)CC1,active: 58.2%
12,O=C(Oc1ccccc1F)c1nc(SCc2ccc(F)cc2)ncc1Cl,-2.81%
13,Cc1ccc(CN(C(=O)COc2cc(C)c(Cl)c(C)c2)c2ccccn2)o1,1.9%
14,COc1ccc(-c2nc3scc(CCNS(=O)(=O)c4ccc5c(c4)OCCO5)n3n2)cc1,-1.65%
15,CC(=O)N1CCc2cc(Br)cc(S(=O)(=O)CCC(=O)N3CCN(c4ccccc4Cl)CC3)c21,-2.47%
16,CCOc1ccc(-c2c(C)nn3c(C)c(C(=O)Nc4cc(C)cc(C)c4)cnc23)cc1OCC,13.7%
17,CC(C)Sc1ncc(Cl)c(C(=O)Nc2ccc(S(=O)(=O)N3CCCCC3)cc2)n1,6.03%
18,CCN(CC)S(=O)(=O)c1ccc2c(c1)c(=O)c(C(=O)N1CCN(c3cc(Cl)ccc3C)CC1)cn2C,9.56%
19,CC1=C(C(=O)Nc2ccc(Cl)cc2)C(c2ccccc2)n2ncc(C(=O)Nc3ccccc3)c2N1 (configuration not stated),-2.89%
20,Cc1cc(C)c2c(c1)c(C)cc1nnc(SCc3ccccc3C#N)n12,-4.34%
21,Cc1ccc(NC(=O)CN2C(=O)COc3ccc(S(=O)(=O)NC4CCCC4)cc32)cc1N(C)C,-7.42%
22,Cc1ccc(C)c(Cn2c(=O)c3c(nc4n3CCN4c3ccccc3)n(C)c2=O)c1,-12.7%
23,COc1ccc(/C=C(\C#N)C(=O)OC2CCOC2=O)cc1 (configuration not stated),active: 33.4%
24,CCSc1ncc(Cl)c(C(=O)Nc2sc3c(c2C(=O)NCCCOC)CCCC3)n1,-20.8%

row,Compound,inhibition
1,CC(=O)N1CCc2c(sc3c2c(=O)n(CCc2ccccc2)c(=O)n3Cc2ccccc2C)C1,4.65%
2,COc1ccc(NC(=O)CSc2nc(-c3cccc(C)c3)[nH]c2-c2ccccc2)cc1OC,15.4%
3,Cc1ccc(C)c(-c2ccc(=O)n(Cc3c(F)cccc3Cl)n2)c1,10.5%
4,Cc1cccc(C)c1NC(=O)CS(=O)(=O)c1nc(-c2ccc(Cl)cc2)cn1-c1ccccc1,-11.1%
5,CC(=O)N1CCc2cc(S(=O)(=O)NC(CC(C)C)C(=O)Nc3cc(C)cc(C)c3)ccc21 (configuration not stated),0.409%
6,Cc1oc(-c2ccccc2Cl)nc1CSc1nc2c(c(=O)[nH]1)CCC2,active: 35%
7,CCC(=O)C1=C(c2ccc(C)cc2)N(C(=O)CC)n2c(nnc2C2CCCCC2)S1,8.6%
8,CC1=C(C(=O)Nc2ccccc2C)C(c2ccccn2)n2ncnc2N1 (configuration not stated),10.2%
9,CCOC(=O)c1nc(NCc2ccc(Cl)cc2)c2c(C)noc2n1,-8.76%
10,Cc1c(Cl)cccc1NC(=O)CCOc1ccccc1,16.9%
11,Cc1cccn2c(=O)c3cc(C#N)c(=O)n(-c4nnc(SCc5ccc(Cl)cc5)s4)c3nc12,-0.636%
12,CCOc1ccc(Cn2c(=O)sc3ccccc32)cc1,-3.37%
13,CC1Cc2ccccc2N1C(=O)CSc1nnc(-c2ccccc2Cl)o1 (configuration not stated),-3.49%
14,CN(C)c1ccc(CNC(=O)c2ccccc2NC(=O)c2nsc3ccccc23)cc1,-26%
15,CC(=O)c1ccc(Nc2cc(C)nc3nc(Cc4ccc(Cl)cc4)nn23)cc1,5.31%
16,CCc1ccc2oc(C(=O)Nc3cc(C)ccc3C)cc(=O)c2c1,13.5%
17,O=C(Nc1cc2c(cc1C(=O)c1ccccc1Cl)OCCO2)c1ccccc1,-3.2%
18,CC(C)c1nn2c(=O)cc(COC(=O)c3ccccc3NC(=O)C3CCCCC3)nc2s1,6.41%
19,CC1CCC(Nc2nc3c(-c4cccc(C(F)(F)F)c4)nnn3c3ccccc23)CC1 (configuration not stated),-4.26%
20,Cc1ccc(C)c(N2CCN(C(=O)c3ccc4c(c3)N(Cc3ccc(F)cc3)C(=O)c3ccccc3S4=O)CC2)c1 (configuration not stated),-4.79%
21,CC(C)OC(=O)c1c(NC(=O)C2c3ccccc3Oc3ccccc32)sc2c1CCCC2,0.214%
22,Cc1cc(C)nc(N/N=C/c2ccccc2)n1,active: 44.5%
23,O=C(c1cccs1)N1CCN(Cc2cccc([N+](=O)[O-])c2)CC1,active: 38.1%
